The values that follow come from the supplement of paper PMC5998384.

The test system of data set [1] is HeLa Kyoto. Kind of data set: solubility change mitosis vs G1/S (difference of NP-40 vs SDS log2 ratios) (log2 ratio difference); higher = more soluble in mitosis.
Data set [2] has as its system HeLa Kyoto. As to the kind of experiment: solubility in G1/S (NP-40 vs SDS abundance) (log2 ratio); higher = more soluble. The note with it: cell cycle stage: G1/S.
The subject of data set [3] is HeLa Kyoto. As to the kind of experiment: thermal stability score vs G1/S (z-score of summed log2 fold changes over temperatures); higher = more thermally stable than in G1/S.
In data set [4] the test system is HeLa Kyoto. As to the kind of experiment: melting temperature (median over replicates), in situ; higher = more thermally stable.
Setting [5] is: cell cycle stage: early G1 (4.5 h after nocodazole release).
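For melting temperature (median over replicates), in situ in this document: HeLa Kyoto cells synchronized by double thymidine or nocodazole block, proteins quantified by TMT10plex mass spectrometry, three independent biological replicates.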
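For solubility change mitosis vs G1/S (difference of NP-40 vs SDS log2 ratios) in this document: synchronized HeLa Kyoto cells (double thymidine block for G1/S, nocodazole release for mitosis), protein amounts in NP-40 versus SDS lysates quantified by mass spectrometry, three biological replicates.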
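For solubility in G1/S (NP-40 vs SDS abundance) in this document: HeLa Kyoto cells arrested at G1/S by double thymidine block, proteins quantified by TMT10plex mass spectrometry in mild NP-40 versus SDS extracts, three biological replicates.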
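For thermal stability score vs G1/S (z-score of summed log2 fold changes over temperatures) in this document: synchronized HeLa Kyoto cells, proteins quantified by TMT10plex mass spectrometry, three biological replicates, mitosis taken 0.5 h after nocodazole release, G1/S directly after double thymidine block.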

On to ANKRD27 (sequence left out), for which, in the data set with HeLa Kyoto [1], the “solubility change mitosis (log2)” value was found to be 0.0809. The “solubility in G1/S (log2)” value with HeLa Kyoto [2] is -0.0142.
On to ATP5B (sequence left out), for which the “solubility change mitosis (log2)” value in the data set with HeLa Kyoto [1] is -0.0404. Also, the values for the thermal stability score in the data set on HeLa Kyoto [3] (setting [5]) and in the data set on HeLa Kyoto [3] (cell cycle stage: mitosis) were -1.49 and -1.56, respectively. Besides, the melting temperature amounted to 57.9 °C with HeLa Kyoto [4] (cell cycle stage: G1/S) and 58.7 °C in the data set on HeLa Kyoto [4] (cell cycle stage: mitosis). For the same substance, the “solubility in G1/S (log2)” value with HeLa Kyoto [2] turned out to be 0.272.
CAMK2D (sequence left out): the “solubility change mitosis (log2)” value in the data set with HeLa Kyoto [1] came out at 0.243. Also, the results for the thermal stability score with HeLa Kyoto [3] (setting [5]) and in the data set on HeLa Kyoto [3] (cell cycle stage: mitosis) were 0.158 and 0.291, respectively. Besides, the melting temperature amounted to 50 °C with HeLa Kyoto [4] (cell cycle stage: G1/S) and 48.8 °C in the data set with HeLa Kyoto [4] (cell cycle stage: mitosis). Moreover, the “solubility in G1/S (log2)” value in the data set on HeLa Kyoto [2] is -0.271.
As for CFL1 (sequence left out), the “solubility change mitosis (log2)” value in the data set with HeLa Kyoto [1] amounted to 0.0376. The thermal stability score with HeLa Kyoto [3] (setting [5]) is -0.213; in the data set on HeLa Kyoto [3] (cell cycle stage: mitosis), -3.48. In addition, the melting temperature in the data set on HeLa Kyoto [4] (cell cycle stage: G1/S) stood at 54.1 °C; in the data set on HeLa Kyoto [4] (cell cycle stage: mitosis), 53.6 °C. The “solubility in G1/S (log2)” value in the data set with HeLa Kyoto [2] was 0.193.
Turning to CREB1 (sequence left out), the thermal stability score was -0.817 in the data set with HeLa Kyoto [3] (setting [5]) and -2.32 in the data set with HeLa Kyoto [3] (cell cycle stage: mitosis). Moreover, the melting temperature was 54 °C in the data set on HeLa Kyoto [4] (cell cycle stage: G1/S) and 54.1 °C with HeLa Kyoto [4] (cell cycle stage: mitosis).
For EIF2S3 (sequence left out), the “solubility change mitosis (log2)” value with HeLa Kyoto [1] is -0.0876. Also, the thermal stability score in the data set on HeLa Kyoto [3] (setting [5]) is -0.232; in the data set with HeLa Kyoto [3] (cell cycle stage: mitosis) it was -1.62. For the same substance, the melting temperature in the data set with HeLa Kyoto [4] (cell cycle stage: G1/S) amounted to 53.3 °C; in the data set with HeLa Kyoto [4] (cell cycle stage: mitosis) it was 53.5 °C. Moreover, the “solubility in G1/S (log2)” value in the data set on HeLa Kyoto [2] is 0.114.
Consider EPHA2 (sequence left out), for which, in the data set with HeLa Kyoto [1], the “solubility change mitosis (log2)” value is -0.116. Also, the thermal stability score in the data set on HeLa Kyoto [3] (setting [5]) is -1.61; in the data set with HeLa Kyoto [3] (cell cycle stage: mitosis), -0.979. Further, the results for the melting temperature in the data set on HeLa Kyoto [4] (cell cycle stage: G1/S) and with HeLa Kyoto [4] (cell cycle stage: mitosis) were 50.8 °C and 49.8 °C, respectively. For the same substance, the “solubility in G1/S (log2)” value with HeLa Kyoto [2] was 0.0373.
As for GSN (sequence left out), the “solubility change mitosis (log2)” value in the data set on HeLa Kyoto [1] was -0.028. In addition, the thermal stability score is -0.349 in the data set with HeLa Kyoto [3] (setting [5]) and -1.14 in the data set on HeLa Kyoto [3] (cell cycle stage: mitosis). Also, the “solubility in G1/S (log2)” value in the data set on HeLa Kyoto [2] was -0.463.
As for IQGAP1 (sequence left out), the “solubility change mitosis (log2)” value in the data set with HeLa Kyoto [1] is -0.248. Also, the thermal stability score with HeLa Kyoto [3] (setting [5]) was -1.44; with HeLa Kyoto [3] (cell cycle stage: mitosis) it was 1.51. Further, the melting temperature with HeLa Kyoto [4] (cell cycle stage: G1/S) came to 50.9 °C; in the data set with HeLa Kyoto [4] (cell cycle stage: mitosis), 50.1 °C. Further, the “solubility in G1/S (log2)” value in the data set with HeLa Kyoto [2] was found to be 0.0423.
MED12: the “solubility change mitosis (log2)” value in the data set with HeLa Kyoto [1] is -0.0564. In addition, the results for the melting temperature in the data set with HeLa Kyoto [4] (cell cycle stage: G1/S) and in the data set with HeLa Kyoto [4] (cell cycle stage: mitosis) were 48.7 °C and 49 °C, respectively. For the same substance, the “solubility in G1/S (log2)” value with HeLa Kyoto [2] is -0.0957.
Turning to TRIM5 (sequence left out), the “solubility change mitosis (log2)” value in the data set on HeLa Kyoto [1] is -0.0572. For the same substance, the thermal stability score was 0.322 in the data set on HeLa Kyoto [3] (setting [5]) and 0.0791 in the data set with HeLa Kyoto [3] (cell cycle stage: mitosis). In addition, the “solubility in G1/S (log2)” value in the data set on HeLa Kyoto [2] was 0.013.
Turning to “[skipping about 600 residues]ILAKKKVMAPSKIKVKESSTKPDKKVSVPSGQIGGPIALPSDHQTGGLSIGASSRELPSQASGGLANPPPVNLEDSLDEDLIRNPASSVEAVSKELAALNSRAAGNSEFTLPAPSKAPAEKVGGVLCTEEKRNFAKPSPSAPPPASSLQSPLNFLAEQALALGQSSQEKKPESSGYKELSCQAPLNKGLPEVHQSKAKHHSLPRTSHGPQVAVPVPGPQVKVFHAGTQQQKNFTPPSPFANKLQGPKASPTQCHRSLLQLVKTAAKGQGFHPSAPATSGGLSASSSSSHKTPASSSSALSHPAKPHSVSSAGSSYKNNPFASSISKHGVSSGSSSSGGTPVQSSVSGSLVPGIQPPSVGQATSRPVPSSAGKKMPVSQKLTLVAPPGGPNGDSSGGTQGVAKLLTSPSLKPSAVSSVTSSTSLSKGASGTVLLAGSSLMASPYKSSSPKLSGAMSSNSLGIITPVPIPVHVLSFSADSSAKAGVSKDAIVTGPAPGSFHHGLGHSLLAGLHSSPPHAAPLPHAAVPTHIPQSLPGASQLHGKGPAVPRKL [UBN1]”, the “solubility change mitosis (log2)” value in the data set with HeLa Kyoto [1] is 0.374. Besides, the “solubility in G1/S (log2)” value in the data set on HeLa Kyoto [2] was -0.442.
